Test results as given in PubChem BioAssay AID624296 (National Center for Advancing Translational Sciences (NCATS), 2012).
About 9,900 (2.8%) of roughly 350,000 compounds were called active. The inconclusive results got no clear call from the source; some entries with a clear call stand among them for comparison. Calls come from the whole dose curve; as a rule, active = well fitted activation curve with a large enough effect; inconclusive = small, poorly fitted or top-dose-only effect; inactive = no such curve, though single readings can be large or run the other way. No potency is given beside an inconclusive call; the fits are too rough.

assay: A quantitative high throughput screen for small molecules that induce DNA re-replication in MCF 10a normal breast cells.; note: nearly all actives have a fitted effect of over 50% in size; for activity, positive = re-replication: % of control where 0% means no effect; settings: MCF 10A DNA re-replication, Hoechst nuclear intensity, 48 h; activity, positive = re-replication: at 46.1 µM (top of the series)
Potency is the fitted concentration of half-maximal effect; tags give direction and shape of the fitted curve.

With COc1ccccc1C(=O)Nc1nnc(S(=O)(=O)N(C)Cc2ccccc2)s1 as the molecule, how does the Potency read?
Its Potency is inconclusive [activator, full curve, poor fit].

For O=C(O)c1cc(-c2cccc([N+](=O)[O-])c2)nc2ccccc12, which “activity, positive = re-replication” value is on record?
Its value is inactive: -0.0263%.

For CC(=O)c1cccc(NC(=S)NNC(=O)c2ccc(C)c([N+](=O)[O-])c2)c1, which Potency is on record?
Its Potency is inconclusive [activator, single point].

Which Potency does the source give for CC(C)c1ccc(NC(=O)C(c2ccc3c(c2)OCO3)N2CCN(C(=O)c3ccco3)CC2)cc1 (stereo unspecified) here?
Its Potency is inconclusive [activator, partial curve, poor fit].

Which Potency does the source give for CCc1ccc(S(=O)(=O)NCCc2csc(-c3ccccc3)n2)s1 here?
Its Potency is inconclusive [activator, partial curve, poor fit].

Which Potency does the source give for COc1ccc(OC)c(C(=O)Cn2nnc(-c3ccc(N4CCOCC4)cc3)n2)c1 here?
The Potency was inconclusive [activator, partial curve, poor fit].

Which Potency does the source give for N=c1oc2ccccc2cc1C(=O)NCc1ccccc1 here?
The Potency was inconclusive [activator, single point].

Which Potency does the source give for Cc1onc(-c2c(Cl)cccc2Cl)c1C(=O)N1CCN(c2ccccc2)CC1 here?
The Potency was inconclusive [activator, single point].

Which Potency does the source give for COc1cccc(NC(=O)c2cc(-c3cccnc3)nc3c(Cl)cccc23)c1 here?
The Potency was inconclusive [activator, single point].

With O=c1oc2c(CN3CCOCC3)c(O)c(Cl)cc2c2c1CCCC2 as the molecule, how does the “activity, positive = re-replication” value read?
Its value is inactive: 6.23%.

Which Potency does the source give for COc1ccc2nc(NC(=O)CSc3nnc(C)s3)sc2c1 here?
The Potency was inconclusive [activator, partial curve, poor fit].

With Cc1cc(NC(=O)c2cccc(S(=O)(=O)Nc3cccc(C(=O)O)c3)c2)no1 as the molecule, how does the Potency read?
Its Potency is inconclusive [activator, single point].

Which “activity, positive = re-replication” value does the source give for CN(Cc1ccccc1)C(=O)C1CCC(CNS(=O)(=O)c2cccc3cccnc23)CC1 (stereo unspecified) here?
Its value is inactive: 23.9%.

Which Potency does the source give for COc1cccc2sc3cc(NCC[C@@H]4CCCN4C)ccc3c(=O)c12 here?
The Potency was inconclusive [activator, single point].

With CCOc1ccccc1NC(=O)NCCN1CCCCC1 as the molecule, how does the “activity, positive = re-replication” value read?
The value was inactive: 4.61%.

For COc1ccc(/C=C2\SC(=O)N=C2N)cc1, which Potency is on record?
The Potency was inconclusive [activator, single point].

Which “activity, positive = re-replication” value does the source give for O=[N+]([O-])c1cccnc1Sc1ccccc1Cl here?
Its value is inactive: 4.28%.

For Cc1cccc(N(C(=O)c2csnn2)C(C(=O)NCc2ccccc2)c2ccncc2)c1 (stereo unspecified), which Potency is on record?
The Potency was inconclusive [activator, single point].

With O=C1/C(=C/c2cccnc2)Oc2cc(OS(=O)(=O)c3ccc(F)cc3)ccc21 as the molecule, how does the Potency read?
Its Potency is inconclusive [activator, partial curve, poor fit].

For CN1CCc2c(sc3c2C(=O)NC(c2ccc(-c4cccc(Cl)c4)o2)N3)C1 (stereo unspecified), which Potency is on record?
Its Potency is inconclusive [activator, single point].

With O=C1C(Cl)=C(N2CCN(c3ccccc3[N+](=O)[O-])CC2)C(=O)c2ccccc21 as the molecule, how does the Potency read?
Its Potency is inconclusive [activator, single point].

For Cc1sc2ncnc(N3CCC(C(=O)Nc4nc(-c5cccs5)cs4)CC3)c2c1C, which Potency is on record?
Its Potency is inconclusive [activator, partial curve].

Which Potency does the source give for CN(C)c1ccc(C2CNC(c3ccc(Cl)c([N+](=O)[O-])c3)c3[nH]c4ccccc4c32)cc1 (stereo unspecified) here?
The Potency was active: 4.11 µM.

For Cc1cccc(CS(=O)(=O)c2ncc(Cl)c(C(=O)NCc3ccc4c(c3)OCO4)n2)c1, which Potency is on record?
The Potency was inconclusive [activator, single point].

With Cc1ccc(C)c(S(=O)(=O)N2CCN(C(=O)Cn3c(=O)cnc4ccccc43)CC2)c1 as the molecule, how does the “activity, positive = re-replication” value read?
Its value is inactive: 5.19%.

With O=C(c1ccc(Cn2c(=S)[nH]c3ccc(N4CCOCC4)cc3c2=O)cc1)N1CCC(N2CCCCC2)CC1 as the molecule, how does the Potency read?
The Potency was inconclusive [activator, partial curve, poor fit].

For CCCOC(=O)c1ccc(NC(=O)c2ccoc2C)cc1, which “activity, positive = re-replication” value is on record?
Its value is inactive: 6.63%.

For COc1cc(OC)cc(C(=O)NC(C(=O)NNC(=O)CN(C)S(=O)(=O)c2ccc(C)cc2)C(C)C)c1 (stereo unspecified), which “activity, positive = re-replication” value is on record?
The value was inactive: 10.9%.

With Cc1ccc(/C=C2/C(=O)N(c3ccccc3)C(=S)N2C)o1 as the molecule, how does the Potency read?
Its Potency is inconclusive [activator, partial curve, poor fit].

For O=C(CCc1nnc2n(Cc3ccc(Cl)cc3)c(=O)c3ccccc3n12)NCCN1CCCC1, which “activity, positive = re-replication” value is on record?
The value was inactive: 4.23%.

For CN1CCc2c(sc3c2C(=O)NC(c2cccs2)N3)C1 (stereo unspecified), which Potency is on record?
Its Potency is inconclusive [activator, single point].

For CC1CCCN(C(=O)C(C)Sc2nc(-c3ccccc3)cc(C(F)(F)F)n2)C1 (stereo unspecified), which Potency is on record?
Its Potency is inconclusive [activator, single point].

With Cc1ccc(S(=O)(=O)N2CCN(c3ccc4nnc(-c5ccccc5)n4n3)CC2)cc1 as the molecule, how does the “activity, positive = re-replication” value read?
Its value is inactive: -0.51%.

With Cc1ccc(S(=O)(=O)NC(C(=O)Oc2ccc3ccc(=O)oc3c2)c2ccccc2)cc1 (stereo unspecified) as the molecule, how does the Potency read?
Its Potency is inconclusive [activator, partial curve, poor fit].

With O=C(CSCc1cccc(Cl)c1)N/N=C/c1ccc(OCC(=O)N2CCCCC2)cc1 as the molecule, how does the “activity, positive = re-replication” value read?
Its value is inactive: -9.87%.

With CC(=O)C(C(c1ccccc1)c1c[nH]c2ccccc12)[N+](=O)[O-] (stereo unspecified) as the molecule, how does the Potency read?
Its Potency is inconclusive [activator, full curve].

With Cc1ccc(S(=O)(=O)N2C[C@@H]3[C@H]4CC[C@H](C4)[C@@H]3[C@@H](C)[C@H]2c2ccn(Cc3ccccc3)c2)cc1 as the molecule, how does the “activity, positive = re-replication” value read?
The value was inactive: 13.9%.

For O=C(OCC(=O)N1CCOCC1)c1cc(S(=O)(=O)N2CCOCC2)c(Cl)cc1Cl, which Potency is on record?
Its Potency is inconclusive [activator, single point].

With Cc1ccc(C)n1-c1ccc(NC(=O)c2ccccc2)cc1 as the molecule, how does the Potency read?
The Potency was inconclusive [activator, single point].

Which Potency does the source give for CC(CCN1C(N(C)C)=NC[C@@H]1C)c1ccccc1 (stereo partly specified) here?
Its Potency is inconclusive [activator, full curve, poor fit].

For CCOC(=O)c1[nH]c2ccc(OC)cc2c1NC(=O)/C=C/c1ccc2c(c1)OCO2, which Potency is on record?
Its Potency is inconclusive [activator, partial curve, poor fit].
